Data published in US20210138025A1, “CATIONIC PEPTIDES WITH IMMUNOMODULATORY AND/OR ANTI-BIOFILM ACTIVITIES” (priority 2018, published 2021).
Not every detail of the peptide structures is certain; ends, links or a residue may be inferred. Some compounds share one wording; it may come from a single statement. Some entries share one result that the patent states for a list of compounds. No end group written: not given here.

Key:
S. aureus (MRSA SAP0017) = assay type: cell-based, Staphylococcus aureus; conditions: SPOT synthesized peptide, ~12.5 μM, clinical MRSA strain, crystal violet assay
Description: Methods of assessment of anti-biofilm activity: MRSA S. aureus strain SAP0017 biofilm formation was initially analyzed using a static abiotic solid surface assay as described elsewhere (de la Fuente-Nunez et al., 2012) and shown graphically in FIG. 2. Dilutions (1/100) of overnight cultures were incubated in BM2 biofilm-adjusted medium [62 mM potassium phosphate buffer (pH 7), 7 mM (NH4)2SO4, 2 mM MgSO4, 10 μM FeSO4, 0.4% (wt/vol) glucose, 0.5% (wt/vol) Casamino Acids], or a nutrient rich medium such as Tryptic soy broth supplemented with 1% glucose, in polypropylene microtiter plates (Falcon, United States) in the absence (control) or presence of peptide. Peptide was added at time zero (prior to adding the diluted, overnight cultures) in varying concentrations, and the amount biofilm formation was recorded after 22-46 h incubation for most bacteria. To quantify biofilm growth, planktonic cells were removed and biofilm cells adhering to the side of the wells were stained with crystal violet, and absorbance at 595 nm was measured using a microtiter plate reader (Bio-Tek Instruments Inc., United States).

MCP-1 = MCP-1 chemokine induction in human PBMCs, ELISA (Tables 6, 7; FIGS. 6-9, 13); assay type: cell-based
Description: Venous blood (20 ml) from healthy volunteers was collected in Vacutainer® collection tubes containing sodium heparin as an anticoagulant (Becton Dickinson, Mississauga, ON) in accordance with UBC ethical approval and guidelines. Blood was diluted 1:1 with complete RPMI 1640 medium and separated by centrifugation over a Ficoll-Paque® Plus (Amersham Biosciences, Piscataway, N.J., USA) density gradient. White blood cells were isolated from the buffy coat, washed twice in PBS and then resuspended in RPMI 1640 complete medium (containing 10% fetal bovine serum), and the number of peripheral blood mononuclear cells (PBMC) was determined by Trypan blue exclusion. PBMCs (5×10^5) were seeded into 12-well tissue culture dishes (Falcon; Becton Dickinson) at 0.75-1×10^6 cells/ml at 37° C. in 5% CO2. The above conditions were chosen to mimic conditions for circulating blood monocytes entering tissues at the site of infection via extravasation.
Following incubation of the cells under various treatment regimens, the tissue culture supernatants were centrifuged at 1000×g for 5 min, then at 10,000×g for 2 min to obtain cell-free samples. Supernatants were aliquoted and then stored at −20° C. prior to assay for various chemokines by capture ELISA (eBioscience and BioSource International Inc., CA, USA respectively)

CCL5 [1] = assay: CCL5 production by peptide alone and in presence of LPS, bovine cells (Table 21); assay type: cell-based; conditions: for Concentration of CCL5 in the absence of stimulation by LPS or ConA / % CCL5 production relative to that of LPS/ConA: peptide 32 μg/ml
Description: (§1) A subset of peptides was tested for stimulation of the chemokine CCL5 (Table 21).

CCL5 [2] = assay: CCL5 production by peptide alone and in presence of Con A, canine cells (Table 21); assay type: cell-based; conditions: peptide 32 μg/ml
Description: as §1

monocytes [3] = assay: Cytokine production in unstimulated monocytes, bovine (Table 22); assay type: cell-based; conditions: background subtracted
Description: (§2) A subset of peptides was tested for stimulation of cytokine production in monocytes (Table 22). For the tested cytokines, the peptides tended to show anti-inflammatory activity rather than […] activity.

monocytes [4] = assay: Cytokine production in unstimulated monocytes, canine (Table 22); assay type: cell-based; conditions: background subtracted
Description: as §2

LPS stimulated monocytes = assay: Anti-inflammatory activity in LPS stimulated monocytes, bovine (Table 23); assay type: cell-based; conditions: 32 μg/ml peptide, negative = increase
[5] = tested on: ConA stimulated monocytes; assay: Anti-inflammatory activity in ConA stimulated monocytes, canine (Table 23); assay type: cell-based; conditions: 32 μg/ml peptide, negative = increase
T-lymphocytes [6] = assay: Cytokine production in T-lymphocytes, bovine (Table 24); assay type: cell-based; conditions: no additional stimulant, background (NONE) subtracted
T-lymphocytes [7] = assay: Cytokine production in T-lymphocytes, canine (Table 24); assay type: cell-based; conditions: no additional stimulant, background (NONE) subtracted
T-lymphocytes [8] = assay: Anti-inflammatory activity towards stimulated T-lymphocytes, bovine (Table 25); assay type: cell-based; conditions: Bovine T-cells, 32 μg/ml of peptide
T-lymphocytes [9] = assay: Anti-inflammatory activity towards stimulated T-lymphocytes, canine (Table 25); assay type: cell-based; conditions: Canine T-cells, 32 μg/ml of peptide
PBMCs = assay: Cytotoxicity towards PBMCs, lactate dehydrogenase (LDH) release assay (Tables 6, 7); conditions: compared with 1018

KIVIRIILQVIK-NH2 [Peptide 3015, KIVIRIILQVIK]
% Residual MRSA biofilm growth compared to untreated control (S. aureus (MRSA SAP0017)): 102% | MCP1 production in PBMC (MCP-1; SPOT synthesized peptide alone, ~25 μM, PBMCs from 3 human donors, Table 6): 5543 pg/mL | MCP1 induction from PBMCs compared to 1018 (in words) (MCP-1; peptide >95% purity): stronger MCP1 inducing abilities than 1018 | Concentration of CCL5 in the absence of stimulation by LPS or ConA (CCL5 [1]; Bovine Monocyte): 468 | Concentration of CCL5 in the absence of stimulation by LPS or ConA (CCL5 [1]; Bovine T-cells): 86 | % CCL5 production relative to that of LPS/ConA (CCL5 [1]; Bovine/LPS Monocyte): 28% | % CCL5 production relative to that of LPS/ConA (CCL5 [1]; Bovine/LPS T-cells): 42% | anti-inflammatory effect (CCL5) in LPS stimulated bovine cells (in words) (CCL5 [1]; LPS stimulated): The exceptions were again peptides 3013 and 3015 | induction of chemokine CCL5 by peptide on its own, bovine cells (in words) (CCL5 [1]; no LPS): except for peptides 3013 and 3015 treated bovine cells | Concentration of CCL5 in the absence of stimulation by LPS or ConA (CCL5 [2]; Canine Monocyte): 342 | Concentration of CCL5 in the absence of stimulation by LPS or ConA (CCL5 [2]; Canine T-cells): 123 | % CCL5 production relative to that of LPS/ConA (CCL5 [2]; Canine/ConA Monocyte): 96% | % CCL5 production relative to that of LPS/ConA (CCL5 [2]; Canine/ConA T-cells): 78% | Concentration of Monocyte cytokine IFNγ in absence of additional stimulant (monocytes [3]): 71 pg/mL | Concentration of Monocyte cytokine IL-2 in absence of additional stimulant (monocytes [3]): -99 pg/mL | Concentration of Monocyte cytokine IL-4 in absence of additional stimulant (monocytes [3]): -158 pg/mL | Concentration of Monocyte cytokine IL-6 in absence of additional stimulant (monocytes [3]): 98 pg/mL | Concentration of Monocyte cytokine IL-13 in absence of additional stimulant (monocytes [3]): 90 pg/mL | Concentration of Monocyte cytokine TNFα in absence of additional stimulant (monocytes [3]): -80 pg/mL | Concentration of Monocyte cytokine IFNγ in absence of additional stimulant (monocytes [4]): -288 pg/mL | Concentration of Monocyte cytokine IL-2 in absence of additional stimulant (monocytes [4]): 344 pg/mL | Concentration of Monocyte cytokine IL-4 in absence of additional stimulant (monocytes [4]): -260 pg/mL | Concentration of Monocyte cytokine IL-6 in absence of additional stimulant (monocytes [4]): -80 pg/mL | Concentration of Monocyte cytokine IL-13 in absence of additional stimulant (monocytes [4]): 421 pg/mL | Concentration of Monocyte cytokine TNFα in absence of additional stimulant (monocytes [4]): -167 pg/mL | % Monocyte cytokine decrease in presence of LPS/ConA, IFNγ (LPS stimulated monocytes): 92.0% | % Monocyte cytokine decrease in presence of LPS/ConA, IL-2 (LPS stimulated monocytes): 87.7% | % Monocyte cytokine decrease in presence of LPS/ConA, IL-4 (LPS stimulated monocytes): 73.1% | % Monocyte cytokine decrease in presence of LPS/ConA, IL-6 (LPS stimulated monocytes): 7.3% | % Monocyte cytokine decrease in presence of LPS/ConA, IL-13 (LPS stimulated monocytes): 78.3% | % Monocyte cytokine decrease in presence of LPS/ConA, TNFα (LPS stimulated monocytes): 26.2% | % Monocyte cytokine decrease in presence of LPS/ConA, IFNγ [5]: 38.0% | % Monocyte cytokine decrease in presence of LPS/ConA, IL-2 [5]: 20.2% | % Monocyte cytokine decrease in presence of LPS/ConA, IL-4 [5]: 34.9% | % Monocyte cytokine decrease in presence of LPS/ConA, IL-6 [5]: −16.5% | % Monocyte cytokine decrease in presence of LPS/ConA, IL-13 [5]: 27.4% | % Monocyte cytokine decrease in presence of LPS/ConA, TNFα [5]: 19.0% | Concentration of T-cell cytokines in the absence of additional stimulant: IFNγ (T-lymphocytes [6]): -54 pg/mL | Concentration of T-cell cytokines in the absence of additional stimulant: IL-2 (T-lymphocytes [6]): -9 pg/mL | Concentration of T-cell cytokines in the absence of additional stimulant: IL-4 (T-lymphocytes [6]): 253 pg/mL | Concentration of T-cell cytokines in the absence of additional stimulant: IL-6 (T-lymphocytes [6]): -54 pg/mL | Concentration of T-cell cytokines in the absence of additional stimulant: IL-13 (T-lymphocytes [6]): 68 pg/mL | Concentration of T-cell cytokines in the absence of additional stimulant: TNFα (T-lymphocytes [6]): -4 pg/mL | Concentration of T-cell cytokines in the absence of additional stimulant: IFNγ (T-lymphocytes [7]): -123 pg/mL | Concentration of T-cell cytokines in the absence of additional stimulant: IL-2 (T-lymphocytes [7]): 173 pg/mL | Concentration of T-cell cytokines in the absence of additional stimulant: IL-4 (T-lymphocytes [7]): 0 pg/mL | Concentration of T-cell cytokines in the absence of additional stimulant: IL-6 (T-lymphocytes [7]): 1 pg/mL | Concentration of T-cell cytokines in the absence of additional stimulant: IL-13 (T-lymphocytes [7]): 0 pg/mL | Concentration of T-cell cytokines in the absence of additional stimulant: TNFα (T-lymphocytes [7]): 367 pg/mL | % Cytokine decrease in the presence of LPS/ConA: IFNγ (T-lymphocytes [8]): 83.9% | % Cytokine decrease in the presence of LPS/ConA: IL-2 (T-lymphocytes [8]): 85.9% | % Cytokine decrease in the presence of LPS/ConA: IL-4 (T-lymphocytes [8]): 70.3% | % Cytokine decrease in the presence of LPS/ConA: IL-6 (T-lymphocytes [8]): −0.9% | % Cytokine decrease in the presence of LPS/ConA: IL-13 (T-lymphocytes [8]): 89.4% | % Cytokine decrease in the presence of LPS/ConA: TNFα (T-lymphocytes [8]): −41.0% | % Cytokine decrease in the presence of LPS/ConA: IFNγ (T-lymphocytes [9]): 67.0% | % Cytokine decrease in the presence of LPS/ConA: IL-2 (T-lymphocytes [9]): 93.3% | % Cytokine decrease in the presence of LPS/ConA: IL-4 (T-lymphocytes [9]): 10.8% | % Cytokine decrease in the presence of LPS/ConA: IL-6 (T-lymphocytes [9]): 45.5% | % Cytokine decrease in the presence of LPS/ConA: IL-13 (T-lymphocytes [9]): 64.3% | % Cytokine decrease in the presence of LPS/ConA: TNFα (T-lymphocytes [9]): 24.7% | toxicity: cytoxicity towards PBMCs and/or hemolysis towards RBCs (in words) (PBMCs): low toxicity
